Out of some 310,000 compounds screened, about 2,200 (0.71%) showed an effect of 50% or more. The effect is printed as a negative number. This is one part of the list.
target: human ether-à-go-go-related gene (hERG) potassium channel (human, UniProt Q12809); assay: primary screen, population patch clamp on CHO cells stably expressing hERG
Sequence (Q12809 whole entry, looked up): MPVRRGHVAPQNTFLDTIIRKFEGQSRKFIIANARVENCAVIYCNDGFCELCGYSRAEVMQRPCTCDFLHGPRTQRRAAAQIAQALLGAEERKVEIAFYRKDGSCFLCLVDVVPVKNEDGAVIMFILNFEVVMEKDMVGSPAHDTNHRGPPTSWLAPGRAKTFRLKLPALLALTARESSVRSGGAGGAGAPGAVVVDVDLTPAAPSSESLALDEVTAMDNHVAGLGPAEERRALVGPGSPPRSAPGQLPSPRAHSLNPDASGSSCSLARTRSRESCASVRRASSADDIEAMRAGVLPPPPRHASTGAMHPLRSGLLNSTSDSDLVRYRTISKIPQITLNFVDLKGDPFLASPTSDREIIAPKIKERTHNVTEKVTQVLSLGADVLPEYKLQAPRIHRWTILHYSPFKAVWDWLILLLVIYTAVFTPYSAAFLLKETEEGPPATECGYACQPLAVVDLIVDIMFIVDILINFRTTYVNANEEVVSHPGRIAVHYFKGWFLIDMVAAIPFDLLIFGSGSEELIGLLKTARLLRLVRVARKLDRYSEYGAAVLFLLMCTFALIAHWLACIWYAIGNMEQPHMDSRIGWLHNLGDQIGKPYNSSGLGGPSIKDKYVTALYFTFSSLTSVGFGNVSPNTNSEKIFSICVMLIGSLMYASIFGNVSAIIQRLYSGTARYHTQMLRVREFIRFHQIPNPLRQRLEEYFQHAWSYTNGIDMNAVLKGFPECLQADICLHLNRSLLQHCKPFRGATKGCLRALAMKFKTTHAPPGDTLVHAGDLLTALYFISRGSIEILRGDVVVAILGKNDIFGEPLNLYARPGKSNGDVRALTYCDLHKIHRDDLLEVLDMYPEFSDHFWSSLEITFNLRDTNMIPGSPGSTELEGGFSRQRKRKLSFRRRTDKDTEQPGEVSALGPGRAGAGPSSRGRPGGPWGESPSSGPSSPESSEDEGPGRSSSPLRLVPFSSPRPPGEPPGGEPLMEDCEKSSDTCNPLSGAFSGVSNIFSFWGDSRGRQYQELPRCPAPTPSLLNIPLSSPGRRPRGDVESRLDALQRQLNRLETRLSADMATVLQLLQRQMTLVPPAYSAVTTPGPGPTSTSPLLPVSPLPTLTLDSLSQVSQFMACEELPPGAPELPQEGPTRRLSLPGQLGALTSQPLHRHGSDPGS

For `Cc1nc(SCc2ccc(O)c([N+](=O)[O-])c2)c([N+](=O)[O-])[nH]1`, which “hERG current change (%, negative = inhibition) at 1uM” value is on record?
Its value is 9.15%.

How did the “hERG current change (%, negative = inhibition) at 1uM” value turn out when `Cc1cccc(C)c1NC(=O)C1C2C=CC(C2)C1C(=O)O` (stereo not drawn) was run?
The value was 9.96%.

For `Cc1cc(NC(=O)COC(=O)C2CCN(S(=O)(=O)c3cccc(Cl)c3Cl)CC2)no1`, which “hERG current change (%, negative = inhibition) at 1uM” value is on record?
Its value is 8.08%.

With `COc1ccc(NC(=O)C(c2ccc(C)cc2)N(C)C(=O)c2cnccn2)cc1` (stereo not drawn) as the molecule, how does the “hERG current change (%, negative = inhibition) at 1uM” value read?
The value was -17.5%.

How did the “hERG current change (%, negative = inhibition) at 1uM” value turn out when `COc1ccc(/C(C)=N/Nc2nc3ccccc3nc2C)cc1` was run?
Its value is 8.76%.

For `COc1ccccc1-c1nnc(NC(=O)c2ccc(S(=O)(=O)N(C)Cc3ccccc3)cc2)o1`, which “hERG current change (%, negative = inhibition) at 1uM” value is on record?
Its value is 4.43%.

How did the “hERG current change (%, negative = inhibition) at 1uM” value turn out when `Cc1ccc(CNC(=O)CSCc2ccc(F)cc2)cc1` was run?
The value was 3.73%.

`CC(=O)N1N=C(c2ccc(Br)cc2)CC1c1cn(C)c2ccccc12` (stereo not drawn) was tested. Which “hERG current change (%, negative = inhibition) at 1uM” value did it give?
Its value is 9.41%.

For `O=C(c1ccncc1)N1CCN(S(=O)(=O)c2cccc(C(F)(F)F)c2)CC1`, which “hERG current change (%, negative = inhibition) at 1uM” value is on record?
Its value is -0.517%.

With `Cc1ccc(CN2CCN(/N=C/c3ccco3)CC2)c(C)c1` as the molecule, how does the “hERG current change (%, negative = inhibition) at 1uM” value read?
Its value is 0.601%.

For `O=C(Nn1cnnc1)c1cc2c(s1)CCCC2`, which “hERG current change (%, negative = inhibition) at 1uM” value is on record?
The value was 6.23%.

How did the “hERG current change (%, negative = inhibition) at 1uM” value turn out when `COCC(=O)Nc1ccc(N2CCN(c3ccccc3)CC2)c(F)c1` was run?
Its value is 20.7%.

For `Cn1c(=O)n(C)c2cc(/C=N/NC(=O)c3ccc(Cl)cc3Cl)ccc21`, which “hERG current change (%, negative = inhibition) at 1uM” value is on record?
Its value is 4.2%.

With `CN(CC(=O)Nc1cccc(F)c1)C(=O)CCC1CCCCC1` as the molecule, how does the “hERG current change (%, negative = inhibition) at 1uM” value read?
Its value is 11.4%.

For `Fc1ccc(CN2CC[C@H]3C=CCc4cccc(c43)C2)cc1`, which “hERG current change (%, negative = inhibition) at 1uM” value is on record?
Its value is 3.8%.

For `Cc1nc(C)c(C(=O)Nc2ccc(Oc3ccccc3)cc2)o1`, which “hERG current change (%, negative = inhibition) at 1uM” value is on record?
Its value is -6.52%.

How did the “hERG current change (%, negative = inhibition) at 1uM” value turn out when `CC(C)c1nnc(NC(=O)CCC(=O)NC2CC2)s1` was run?
Its value is 15.4%.

With `Cc1ccc(-c2nc(NCC3CCCO3)sc2C)cc1` (stereo not drawn) as the molecule, how does the “hERG current change (%, negative = inhibition) at 1uM” value read?
The value was 6.07%.

`CC(C)(C)NC(=O)c1ccc2c(c1)N(CC(=O)N1CCN(c3ccc(F)cc3)CC1)C(=O)C(C)(C)O2` was tested. Which “hERG current change (%, negative = inhibition) at 1uM” value did it give?
Its value is -10.4%.

`CN(CC1CCCO1)S(=O)(=O)c1ccc(C(=O)Nc2ccccc2F)cc1` (stereo not drawn) was tested. Which “hERG current change (%, negative = inhibition) at 1uM” value did it give?
The value was 7.45%.

How did the “hERG current change (%, negative = inhibition) at 1uM” value turn out when `O=C(CN1CCN(Cc2ccccc2Cl)C1=O)NCCCN1CCOCC1` was run?
Its value is 13.2%.

Which “hERG current change (%, negative = inhibition) at 1uM” value does the source give for `CC(C)(C)c1ccc(CSc2ccc(S(=O)(=O)N3CCOCC3)cn2)cc1` here?
The value was 7.21%.

With `Cc1ccc(C(=O)NCC(=O)O)s1` as the molecule, how does the “hERG current change (%, negative = inhibition) at 1uM” value read?
Its value is 10.7%.

For `CC(NC(=O)NC1CCCCC1)c1ccc2c(c1)OCO2` (stereo not drawn), which “hERG current change (%, negative = inhibition) at 1uM” value is on record?
Its value is 6.92%.

Which “hERG current change (%, negative = inhibition) at 1uM” value does the source give for `Cc1ccccc1NC(=O)Cc1nc(COC(=O)Cc2ccccc2F)cs1` here?
Its value is 7.25%.

`COC(=O)[C@H]1C[C@@H]1[C@H](NC(=O)[C@H]1C[C@@H]1[C@H](NC(=O)OCc1ccccc1)c1ccccc1)c1ccccc1` was tested. Which “hERG current change (%, negative = inhibition) at 1uM” value did it give?
The value was 11.3%.

`CN(C)C(=O)COC(=O)c1ccccc1NC(=O)c1ccco1` was tested. Which “hERG current change (%, negative = inhibition) at 1uM” value did it give?
Its value is 10.6%.

With `CS(=O)(=O)N(CC(=O)NCc1ccc2c(c1)OCO2)c1cccc(Cl)c1` as the molecule, how does the “hERG current change (%, negative = inhibition) at 1uM” value read?
Its value is -16%.

How did the “hERG current change (%, negative = inhibition) at 1uM” value turn out when `CN(C(=O)c1cccnc1)c1nc(-c2ccccc2)cs1` was run?
Its value is 11.4%.

Which “hERG current change (%, negative = inhibition) at 1uM” value does the source give for `CCCCn1c(N)c(N(CCOC)C(=O)c2ccc(-c3cccc(C(F)(F)F)c3)o2)c(=O)[nH]c1=O` here?
Its value is 10.2%.

With `CN(C)S(=O)(=O)c1cccc(-c2nn(-c3ccccc3)cc2/C=C2\SC(=S)NC2=O)c1` as the molecule, how does the “hERG current change (%, negative = inhibition) at 1uM” value read?
Its value is 5.57%.

`COc1ccc(CNC(=O)C2CCN(C(=O)c3csc(Nc4ccc(C)cc4)n3)CC2)cc1` was tested. Which “hERG current change (%, negative = inhibition) at 1uM” value did it give?
The value was 9.94%.

`COc1ccc2c(c1)C(c1ccc(C)o1)=NNC(c1ccccc1)=N2` was tested. Which “hERG current change (%, negative = inhibition) at 1uM” value did it give?
Its value is 9.69%.

For `Nc1nc(N)nc(Cc2ccccc2O)n1`, which “hERG current change (%, negative = inhibition) at 1uM” value is on record?
The value was 7.25%.

Which “hERG current change (%, negative = inhibition) at 1uM” value does the source give for `COc1ccccc1NC(=O)C(C)N(C)Cc1ccc(Cl)s1` (stereo not drawn) here?
The value was 13.4%.

For `O=C(N/N=C/c1cccs1)C1CC(=O)N(c2ccccc2)C1` (stereo not drawn), which “hERG current change (%, negative = inhibition) at 1uM” value is on record?
The value was 2.89%.

With `CN1CCN(C(c2ccccc2)c2ccc(Cl)cc2)CC1.Cl` (stereo not drawn) as the molecule, how does the “hERG current change (%, negative = inhibition) at 1uM” value read?
The value was -3.06%.

Which “hERG current change (%, negative = inhibition) at 1uM” value does the source give for `O=C(c1cn(Cc2ccccc2)nc1-c1cccnc1)N1CCc2ccccc2C1` here?
Its value is 7.31%.

Which “hERG current change (%, negative = inhibition) at 1uM” value does the source give for `NC(=O)c1nsc(C(=O)N(c2cccc(F)c2)C(C(=O)NCC2CCCO2)c2c[nH]c3ccccc23)c1N` (stereo not drawn) here?
Its value is 8.63%.

For `O=S1(=O)CCC(n2nccc2-c2ccccc2)C1` (stereo not drawn), which “hERG current change (%, negative = inhibition) at 1uM” value is on record?
The value was 11.4%.

`Cc1ccc([N+](=O)[O-])c(OCCCN2C(=O)NC(C)(C)C2=O)c1` was tested. Which “hERG current change (%, negative = inhibition) at 1uM” value did it give?
Its value is 14%.

How did the “hERG current change (%, negative = inhibition) at 1uM” value turn out when `CCCCCn1c(CNC(=O)c2cccs2)nc2ccccc21` was run?
The value was -6.49%.

`Cc1nnc(NC(=O)CSCc2ccccc2)s1` was tested. Which “hERG current change (%, negative = inhibition) at 1uM” value did it give?
Its value is 6.6%.

Which “hERG current change (%, negative = inhibition) at 1uM” value does the source give for `S=C(Nc1ccc(Cl)cc1Cl)N1CCCCC1` here?
Its value is 4%.

For `COc1cc(OC)c(-c2nn3c(C4CCCCC4)nnc3s2)cc1OC`, which “hERG current change (%, negative = inhibition) at 1uM” value is on record?
The value was 9.63%.

— PMC4336329 (PLoS ONE, 2015)
